Screen size: about 310,000 compounds; about 14,000 (4.5%) showed an effect of 50% or more. Effects have a minus sign here. This is one part of the list.
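Further: peak tail current of the secondary pulse compared with the same well before compound.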

The experiment deals with human ether-à-go-go-related gene (hERG) potassium channel (human, UniProt Q12809). As to the kind of experiment: primary screen, population patch clamp on CHO cells stably expressing hERG.
human ether-à-go-go-related gene (hERG) potassium channel, sequence (Q12809 whole entry, looked up): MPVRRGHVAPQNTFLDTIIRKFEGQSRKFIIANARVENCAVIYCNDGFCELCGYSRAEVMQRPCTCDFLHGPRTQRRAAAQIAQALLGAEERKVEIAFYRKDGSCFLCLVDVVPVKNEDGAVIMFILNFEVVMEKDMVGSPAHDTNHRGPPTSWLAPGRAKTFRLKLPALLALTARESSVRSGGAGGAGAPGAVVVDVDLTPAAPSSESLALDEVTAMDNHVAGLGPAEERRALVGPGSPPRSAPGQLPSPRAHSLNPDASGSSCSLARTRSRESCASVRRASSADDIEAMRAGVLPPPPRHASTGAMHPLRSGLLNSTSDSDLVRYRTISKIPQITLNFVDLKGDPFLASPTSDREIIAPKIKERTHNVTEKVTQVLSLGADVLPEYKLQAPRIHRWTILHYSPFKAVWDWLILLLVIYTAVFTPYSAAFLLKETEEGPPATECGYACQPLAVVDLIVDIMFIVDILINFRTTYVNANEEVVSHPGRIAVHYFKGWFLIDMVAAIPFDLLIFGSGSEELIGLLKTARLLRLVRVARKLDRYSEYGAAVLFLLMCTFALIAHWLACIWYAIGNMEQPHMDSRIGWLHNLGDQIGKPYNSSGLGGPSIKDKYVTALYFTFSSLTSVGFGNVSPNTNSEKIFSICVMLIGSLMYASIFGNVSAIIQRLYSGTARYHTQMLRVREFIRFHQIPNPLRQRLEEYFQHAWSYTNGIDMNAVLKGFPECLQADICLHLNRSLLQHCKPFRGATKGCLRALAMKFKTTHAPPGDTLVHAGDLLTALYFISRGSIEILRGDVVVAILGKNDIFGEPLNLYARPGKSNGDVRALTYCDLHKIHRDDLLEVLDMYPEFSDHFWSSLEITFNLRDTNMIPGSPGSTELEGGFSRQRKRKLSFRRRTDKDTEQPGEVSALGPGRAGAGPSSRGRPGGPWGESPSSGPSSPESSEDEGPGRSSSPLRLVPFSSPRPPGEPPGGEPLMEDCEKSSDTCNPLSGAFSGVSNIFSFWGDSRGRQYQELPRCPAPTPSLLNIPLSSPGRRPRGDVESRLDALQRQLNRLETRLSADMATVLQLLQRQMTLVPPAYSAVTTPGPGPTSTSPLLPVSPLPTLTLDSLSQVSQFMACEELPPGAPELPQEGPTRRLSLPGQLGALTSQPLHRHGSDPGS
With `CCOC(=O)N1CCN(C(=O)c2oc3ccc(S(=O)(=O)N4CC(C)CC(C)C4)cc3c2C)CC1` (stereo not drawn), the “hERG current change (%, negative = inhibition) at 10uM” value is reported as -28.3%.
For `COc1cccc(/C=C/c2nc3c(cnn3-c3ccccc3)c(=O)[nH]2)c1` the value was 2.5%.
For `CN(Cc1cccc(F)c1)C(=O)CNS(=O)(=O)c1ccc2ccccc2c1` the value was 18.5%; for `O=C(CCn1c(=O)oc2ccccc21)Nc1ccc2c(c1)OCCO2`, 10.6%; for `Cc1ccc(C2(C)NC(=O)N(CC(=O)NC(=O)NCCC(C)C)C2=O)cc1` (stereo not drawn), -13.6%.
For `Cc1ccc2[nH]cc(CCNC(=O)C3CCCO3)c2c1` (stereo not drawn) the value was 8.04%; for `COc1ccc(S(=O)(=O)N2CCOCC2)cc1C(=O)N1CCCCCC1`, 6.5%.
For `O=C(c1ccc2c(=O)n(-c3ccccc3)c(=S)[nH]c2c1)N1CCN(c2ccccc2)CC1`, the “hERG current change (%, negative = inhibition) at 10uM” value was -1.95%.
For `O=C(NCCc1ccc(F)cc1)N[C@@H](Cc1ccccc1)C(=O)O` the value was 6.08%.
For `COC(=O)c1cn(C(=O)c2ccccc2Cl)c2ccccc12`, the “hERG current change (%, negative = inhibition) at 10uM” value is -41.9%.
For `CCOc1ccc(NC(=O)CSc2nc(C3CC3)nc3ccccc23)cc1` the value was 25.5%.
For `Cc1cc(NC(=O)COc2ccccc2C#N)no1` the value was 17.7%.
For `Cc1cccc(N(C)C(=O)C2CCCN2S(=O)(=O)c2cccc3nsnc23)c1` (stereo not drawn) the value was 8.06%; for `CC(C)c1[nH]nc2c1C(c1ccco1)C(C#N)=C(N)O2` (stereo not drawn), 17.6%; for `S=C(Nc1cc(Cl)cc(Cl)c1)NC1CCN(Cc2ccccc2)CC1`, -33.6%.
In the case of `Cc1ccc(O)c(C(=O)/C=C/c2ccc3c(c2)OCCCO3)c1`, the “hERG current change (%, negative = inhibition) at 10uM” value is on record as -10.1%.
For `Cc1ccc2c(cnn2C(=O)CCCC(=O)NCc2cccc(F)c2)c1` the value was 3.47%; for `CCCOc1c(Br)cc(C(=O)NCC)cc1OC`, -35.2%; for `OC(COc1ccccc1)CSc1ncn[nH]1` (stereo not drawn), -5.7%.
For `COc1ccc(/C=C/C(=O)O)cc1S(=O)(=O)NCc1ccccc1` the value was 13.8%.
For `Cc1cc(NC(=S)NC(=O)CC(C)C)ccc1Br` the value was 12.1%; for `C=C(C)CNC(=S)NNC(=O)c1ccncc1`, 6.86%; for `NC(=O)c1cc([N+](=O)[O-])ccc1NCCN1C(=O)c2ccc(C(=O)O)cc2C1=O`, 13.2%.
Consider `CC(C)N(C(=O)CSc1nc2c([nH]1)c(=O)n(C)c(=O)n2C)c1ccccc1`, for which the “hERG current change (%, negative = inhibition) at 10uM” value is listed as 12.2%.
For `O=S(=O)(Nc1cccc(-c2cn3cccnc3n2)c1)c1ccccc1` the value was -5.45%; for `CC(=O)c1ccc(OCc2cccc(C(F)(F)F)c2)cc1O`, 8.99%.
For `CC(=O)Nc1ccc(C(=O)COC(=O)CN2C(=O)NC3(CCCCC3C)C2=O)cc1` (stereo not drawn) the value was 7.95%.
For `CSc1nnc(-c2cc[n+](C)cc2)n1CCO.[I-]` the value was 14%; for `Cc1c(Cl)cccc1NC(=O)COc1ccc(S(=O)(=O)N2CCOCC2)cc1`, -13.9%; for `COC(=O)C1(O)CC(C(C)C)=NN1C(=O)c1ccc(Cl)cc1` (stereo not drawn), 9.28%.
As for `O=C(NCc1n[nH]c(=S)n1-c1ccc(F)cc1)c1ccc(S(=O)(=O)N2CCCC2)cc1`, the “hERG current change (%, negative = inhibition) at 10uM” value is 18.2%.
For `Cc1ccc(NC(=O)COC(=O)[C@H](C)NC(=O)c2ccccc2)cc1S(=O)(=O)N1CCOCC1` the value was -11.5%; for `CC(C)C(=O)Nc1ccc2oc(=O)ccc2c1`, 19.9%.
For `CC(C)OC(=O)CC1C(=O)NCCN1C(=S)NC(=O)c1ccccc1Cl` (stereo not drawn) the value was 13.6%; for `COc1ccc(-c2csc(N3CCN(Cc4ccc5c(c4)OCO5)CC3)n2)cc1`, -11.3%.
For `CCOc1ccc(-n2c(=O)c3sccc3n(CC(=O)NC3CCCCC3)c2=O)cc1` the value was 9.7%; for `O=C(NNC(=S)Nc1cccc(Cl)c1)c1ccccc1OC(F)F`, 1.16%; for `COc1ccc(NC(=O)CCc2ccccc2)cc1S(=O)(=O)N1CCCCC1`, 12.4%.
For the compound `CC(C)(C)C(=O)NNC(=O)CCCOc1ccc(Cl)cc1Cl`, the “hERG current change (%, negative = inhibition) at 10uM” value was 6.36%.
For `Cc1ccc2nc(C)cc(Cl)c2c1` the value was 16.9%; for `CNC(=O)c1c[nH]n2c(=O)c(Cc3ccccc3F)c(C)nc12`, 16.9%; for `O=C(NCCCN1CCOCC1)c1cc(S(=O)(=O)N2CCOCC2)c(Cl)cc1Cl`, 12.5%.
For `O=C(COC(=O)c1ccccc1NC(=O)c1ccco1)Nc1ccc2c(c1)OC(F)(F)O2` the value was 12.2%; for `CCC(C)CCCCNC1=NCCS1` (stereo not drawn), -22.7%.
On to `CCOC(=O)N1CCN(C(=O)c2ccccc2NC(=O)c2ccccc2Cl)CC1`, for which the “hERG current change (%, negative = inhibition) at 10uM” value is recorded as 3.22%.
For `COC(=O)c1ccc2ccccc2n1` the value was 12.1%; for `CCCc1cc(=O)[nH]c(SCC(=O)c2cc(C)n(CC(F)(F)F)c2C)n1`, 7.55%; for `O=C(Nc1ccncc1)c1cccc(S(=O)(=O)N2CCN(c3ccc(F)cc3)CC2)c1`, -82.9%.
For `Cc1cc2c(c(=O)o1)C(C(C)C)C(C#N)=C(N)O2` (stereo not drawn) the value was 5.44%.
As for `CC1=C(C(=O)OCc2ccccc2)C(/C=C/c2ccccc2)NC(=S)N1` (stereo not drawn), the “hERG current change (%, negative = inhibition) at 10uM” value amounted to 5.06%.
For `Cc1cc(CSc2ccccc2)ccc1NC(=O)COc1ccccc1` the value was 9.72%.
For `Cc1ccc(CNC(=O)c2ccc(NS(=O)(=O)c3cccs3)cc2)cc1` the value was -0.484%; for `CCc1nc2sc3ccccc3c(=O)c2c(=O)n1Cc1ccc(OC)cc1`, 4.19%; for `CCC(C)[C@H](NC(=O)N1CCC(C)CC1)C(=O)O` (stereo partly drawn), 0.689%.
On to `COc1ccccc1OC(=O)CN1C(=O)c2ccccc2C1=O`, for which the “hERG current change (%, negative = inhibition) at 10uM” value is on record as -1.83%.
For `Cc1cc(N2CCN(C)CC2)ccc1NC(=O)c1cccc(S(=O)(=O)N2CCc3ccccc3C2)c1` the value was 0.654%; for `COc1cc2c(cc1OC)C(C)N(C(=O)C1COc3ccccc3O1)CC2` (stereo not drawn), -35.3%.

The record behind these values is PMC4336329 (PLoS ONE, 2015).
